Laboratory results reported in PubChem BioAssay AID1508642 (National Center for Advancing Translational Sciences (NCATS), 2021).
Out of some 43,000 compounds screened, about 200 (0.47%) were called active. Inconclusive results (about 12%) are left out. The call rests on the fitted dose curve; in most records, active means well fitted cell-killing curve with a large enough effect; inconclusive means small, poorly fitted or top-dose-only effect, or effect the other way; inactive means flat fitted curve, though single readings scatter. Some of the results follow.

test: Cell viability qHTS assay in S16 Pmp22-F2sN cells; settings: S16 Pmp22-F2sN Schwann cells (luciferase reporters placed in the Pmp22 gene) viability, CellTiter-Glo, 24 h; series mostly up to 57.5 µM; activity change, negative = cytotoxicity: at the top concentration; further: nearly all actives have a fitted effect of over 65% in size
In short: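 S16 Schwann cells carrying the Pmp22-F2sN reporter, seeded in 1536-well format, were exposed to library compounds for 24 h at 37C. Viability was read as CellTiter-Glo luminescence after 15 min at room temperature.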
On the % scale 0 is the no-effect control and ±100 the full control effect.

SMILES | activity change, negative = cytotoxicity
CCCN(CCC)c1nn2c(=O)c(C(=O)NCc3cc(Br)ccc3OC)cnc2s1 | inactive: 12.6%
COc1cc(Cl)c(C)cc1NC(=O)Cn1cc(S(=O)(=O)N2CCC(C)CC2)c2ccccc2c1=O | inactive: 2.19%
COc1ccc(C)cc1NC(=O)COCc1cc(-c2ccc(F)cc2)on1 | inactive: 10.6%
CC(C)(C)C(=O)OCc1cc(=O)n2nc(C3CC3)sc2n1 | inactive: 8.32%
CCCn1cc(S(=O)(=O)c2ccc(OC)cc2)c(=O)c2cc(F)c(N3CCCC(C)C3)cc21 (configuration not stated) | inactive: -27.4%
CC(=O)c1ccc(NC(=O)C2=CC(c3ccc(C)cc3)=NS(=O)(=O)N2C)cc1 | inactive: -15.2%
CCOc1ccc(-c2nonc2NC(=O)c2oc3ccc(C)cc3c2C)cc1OCC | inactive: -0.6%
COc1ccc(Cn2ccn(Cc3cccc(Cl)c3)c(=O)c2=O)cc1 | inactive: 13.2%
Cc1ccc(S(=O)(=O)Cc2nc(-c3ccc(C(=O)NCc4ccccc4C)cc3)oc2C)cc1 | inactive: 6.59%
CCCCCOC(=O)CSc1nc2sc3c(c2c(=O)n1-c1ccccc1)CC(C)(CC)OC3 (configuration not stated) | inactive: 20.9%
Cc1ccc(C(=O)Nc2nc3nc(-c4ccccc4)cc(=O)n3[nH]2)cc1 | inactive: -4.51%
CCOC(=O)c1noc2ncnc(N3CCN(c4cccc(C(F)(F)F)c4)CC3)c12 | inactive: 2.33%
CC1CCN(C(=O)Cn2cc(SCC(=O)Nc3ccccc3)c3ccccc32)CC1 | inactive: 10.5%
COc1cccc(-c2nc(SCC(=O)NCc3ccco3)c3c(=O)n(C)c(=O)n(C)c3n2)c1 | inactive: 14%
CCOC(=O)c1c(-c2ccc(C)cc2)csc1NC(=O)c1cc(=O)c2cc(C)cc(C)c2o1 | inactive: 19%
COc1cc(NC(=O)c2c3c(nc4ccccc24)C(=O)N(C2CCCCC2)C3)cc(OC)c1 | inactive: 3.65%
COc1ccc(-n2c(SCc3ccccc3F)nc3c([nH]c4ccccc43)c2=O)cc1OC | inactive: 10.8%
O=C(CSc1c2c(nc3cc(Cl)ccc13)CCCC2)N1CCN(c2ccccc2)CC1 | inactive: 14.4%
COc1ccc(-c2cc(C)no2)cc1S(=O)(=O)NCc1ccco1 | inactive: -7.06%
CCN(CC)S(=O)(=O)c1ccc2c(c1)c(=O)c(C(=O)NCc1ccccc1Cl)cn2C | inactive: -28.5%
COc1ccc(Cl)cc1C(=O)NCc1nnnn1-c1ccccc1 | inactive: -5.13%
O=C(Nc1sc2c(c1C(=O)NCc1ccccc1)CCCC2)c1cc(=O)c2ccccc2o1 | inactive: 3.18%
COc1cccc(N2CCN(C(=O)Cn3nc(C)n4c(cc5c(OC)cccc54)c3=O)CC2)c1 | inactive: 15.9%
COC(=O)c1c(NC(=O)COc2ccc(Cl)cc2)sc(C)c1C | inactive: 0.709%

SMILES | activity change, negative = cytotoxicity
COCc1cc(C)nc2c1C(=O)NC(c1ccc(Br)cc1)N2Cc1ccccc1 (configuration not stated) | inactive: 26.1%
COc1cc(Cl)c(C)cc1NC(=O)Cn1c2ncccc2c(=O)n1-c1ccccc1 | inactive: 8.91%
CCOc1ccccc1C(=O)NCC(c1cccs1)S(=O)(=O)c1ccc(F)c(C)c1 (configuration not stated) | inactive: 19.5%
CCc1ccc(NC(=O)CSc2nc3c(c(=O)[nH]2)CN(Cc2ccc(C)cc2)CC3)cc1 | inactive: 10.2%
O=C(NCc1ccc(Cl)cc1)C1CCN(c2ncnc3c2nc2n3CCCCC2)CC1 | inactive: 3.93%
COc1cc(NC(=O)C2=CC(c3ccco3)=NS(=O)(=O)N2C)cc(OC)c1OC | inactive: -1.99%
CCCCn1c(=O)c2oc3ccccc3c2n(Cc2ccccc2C)c1=O | inactive: 16.4%
CCOC(=O)c1[nH]c2c(c1Cc1ccccc1OC)C(=O)CC(c1ccccc1)C2 (configuration not stated) | inactive: -17.6%
O=C(COc1ccc(F)cc1)Nc1ccccc1C(=O)OCc1cc(=O)n2ccsc2n1 | inactive: 4.14%
COCCc1nn2c(=O)cc(COC(=O)c3ccccc3C)nc2s1 | inactive: -2.54%
Cc1ccc(C)c(N2CCN(C(=O)c3ccc4c(=O)n(CCc5ccccc5)c(=O)[nH]c4c3)CC2)c1 | inactive: 1.64%
O=C(Nc1cc(-c2ccc(Cl)cc2)no1)c1ccc(F)cc1 | inactive: -5.06%
CCCSCCCNC(=O)CN1C(=O)COc2ccc(S(=O)(=O)N3CCCC3)cc21 | inactive: -3.42%
Cc1nc(-c2ccccc2)sc1CCNC(=O)C(=O)Nc1ccc(F)c(Cl)c1 | inactive: 17.8%
NC(=O)c1ccccc1NC(=O)CN1c2ccccc2S(=O)(=O)c2ccccc21 | inactive: -8.23%
CCOc1ccc(S(=O)(=O)Nc2cccc(OC)c2)c2cccnc12 | inactive: -8.04%
O=C1CS(=O)(=O)C2(C(=O)N(Cc3ccccc3)c3ccccc32)N1c1ccc(F)c(Cl)c1 (configuration not stated) | inactive: 7.37%
COc1cccc(-n2nnc(-c3nc(-c4cccs4)no3)c2N)c1 | inactive: 5.49%
COc1ccc(NS(=O)(=O)c2ccc3[nH]c(=O)ccc3c2)cc1OC | inactive: -6.43%
COc1ccccc1C(=O)Oc1c(Sc2ccccc2)c(C)nn1-c1ccccc1 | inactive: -3.21%
COc1ccc(S(=O)(=O)N(CC(=O)Nc2ccccc2Cl)Cc2ccccc2)cc1 | inactive: -10.4%
Cc1ccc(CCNC(=O)CN2C(=O)COc3ccc(S(=O)(=O)N4CCCCCC4)cc32)cc1 | inactive: 4.19%
COc1ccc(C(=O)CCC(=O)Nc2ccc(F)cc2F)cc1 | inactive: 0.0861%
